In US20220389113A1, “BINDING PROTEINS TO CUB DOMAIN-CONTAINING PROTEIN (CDCP1)” (COMMONWEALTH SCIENTIFIC AND INDUSTRIAL RESEARCH ORGANISATION, priority 2019, published 2022):

Tests used:
[1] = test system: human TKCC02 xenograft tumours; assay: PET/CT imaging of subcutaneous human TKCC02 xenograft tumours; type: in vivo, mouse; conditions: ^89Zr labelled
Procedure: PET/CT imaging was used to assess the efficacy with which the chimeric 10D7 antibody detected subcutaneous human TKCC02 xenograft tumours in mice. The chimeric antibody was labelled with the positron-emitting radionuclide ^89Zr as previously described (Zeglis B M et al., (2015) Jove-J Vis Exp (96): 52521). The labelled antibody was injected intravenously (3-5 MBq) into female NOD. Cg-Prkdc^scidIl2rg^tm1W/SzJ mice bearing subcutaneous xenografts of human TKCC02 pancreatic tumours. Imaging was performed on a Siemens Inveon preclinical PET/CT at 1, 24, 48, 72 and 144 hours post-injection.

[2] = molecular target: T1, CDCP1 in HEY ovarian cancer cells (Homo sapiens, UniProt Q9H5V8); assay: CDCP1 degradation assay in ovarian cancer cells (Western blot); type: cell-based; conditions: 5 μg/ml, 24h and 48h
T1 construct: cell surface CDCP1 levels about half those of endogenous expressing HEY cells; endogenous in cells; host or cells: HEY (ATCC) epithelial ovarian cancer cells
T1 sequence (Q9H5V8 30-836): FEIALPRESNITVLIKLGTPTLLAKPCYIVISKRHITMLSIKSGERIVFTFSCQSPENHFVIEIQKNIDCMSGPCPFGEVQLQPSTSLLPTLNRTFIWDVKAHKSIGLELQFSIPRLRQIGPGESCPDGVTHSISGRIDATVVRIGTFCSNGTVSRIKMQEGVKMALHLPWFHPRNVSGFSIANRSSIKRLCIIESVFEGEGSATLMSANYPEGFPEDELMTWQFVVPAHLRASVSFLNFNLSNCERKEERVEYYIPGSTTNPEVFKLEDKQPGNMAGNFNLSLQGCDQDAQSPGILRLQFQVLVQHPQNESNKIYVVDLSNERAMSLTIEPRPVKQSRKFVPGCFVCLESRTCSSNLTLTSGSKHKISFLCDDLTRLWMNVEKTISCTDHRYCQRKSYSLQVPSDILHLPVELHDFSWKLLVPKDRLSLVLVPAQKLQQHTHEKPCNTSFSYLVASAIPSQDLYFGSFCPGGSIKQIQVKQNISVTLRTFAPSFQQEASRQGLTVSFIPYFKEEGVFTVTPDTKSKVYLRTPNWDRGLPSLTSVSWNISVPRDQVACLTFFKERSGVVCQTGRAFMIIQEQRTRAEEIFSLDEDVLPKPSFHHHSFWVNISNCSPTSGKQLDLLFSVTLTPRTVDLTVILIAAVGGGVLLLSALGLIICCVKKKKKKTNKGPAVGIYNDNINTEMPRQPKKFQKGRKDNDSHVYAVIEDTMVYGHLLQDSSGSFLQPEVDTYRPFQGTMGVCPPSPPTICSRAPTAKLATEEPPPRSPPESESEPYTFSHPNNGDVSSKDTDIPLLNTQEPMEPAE
Procedure: Ovarian cancer cells (HEY) were seeded in 6 well plate in growth medium (200,000 per well). Once confluence was reached about 70%, cells were treated with 5 μg/ml of isotype IgG control, 10D7 or chimeric hu/mu-10D7 antibody in a final volume of 2 ml. Cells were lysed using RIPA buffer after 24h and 48h treatment. In addition, to investigate the re-expression of CDCP1 after 48h antibody treatment, the medium was replaced with fresh growth medium not containing any treatment for 24 and 48h (+24h and +48h respectively) and cell were lysed in RIPA buffer.

[3] = test system: TKCC05 cells, control ShRNA or ShRNA-targeting CDCP1; assay: Incucyte internalisation assay with FabFluor-pH Red labelled antibodies; type: cell-based, human; conditions: 2 μg/ml, 8 h, scanning every 15 min
Procedure: TKCC05 cells stably silenced for CDCP1 expression using an ShRNA-targeting CDCP1 or control ShRNA TKCC05 cells in 96 well/plate format were treated with 2 μg/ml of IgG isotype control, 10D7 or huma/mouse-10D7 pre-labelled with a pH-sensitive fluorescent dye (FabFluor-pH Red Antibody Labeling Reagent, Essen-Biosciences).
TKC005 pancreatic cancer cells (5,000 cells expressing control ShRNA-[…]) or ShRNA-targeting CDCP1-[…]) were plated into 96 well plate in growth medium. When confluence reached ˜50%, cells were treated with 2 μg/ml of IgG isotype control, 10D7 or Chim hu/mu-10D7 pre-labelled with pH-sensitive fluorescent dye (FabFluor-pH Red Antibody Labelling Reagent, Essen-Biosciences). Fluorescence per cells were measured in real time using Incucyte S3 over 8h with scanning every 15 min.

[4] = test system: CDCP1 expressing TKCC05 pancreatic cancer cells; assay: Flow cytometry binding of chimeric 10D7 to pancreatic cancer cells; set-up: species or system human
Excerpt: Binding for the 10D7 mouse antibody is shown left and the human/mouse chimeric 10D7 antibody and corresponding Fab is shown right.
The mouse 10D7 antibody described in examples 1-14 was modified to replace the constant region sequences of the heavy and light chains with corresponding human sequences.

[5] = test system: TKCC05 pancreatic cancer cells and HEY ovarian cancer cells; assay: Flow cytometry with Atto-550 labelled antibodies; type: binding, human; conditions: 10 ng/ml, 1 h at 4° C.
Procedure: Antibody 10D7, Chimeric hu/mu-10D7 and isotype control IgG antibodies were conjugated with fluorophore Atto-550 as per manufacturer instruction (Sigma, Atto 550 Protein labelling kit, 51146-1KT). Cancer cells (TKCC05, pancreatic cancer cells expressing CDCP1 mainly under its cleaved form; HEY, ovarian cancer cells expressing CDCP1 mainly under its full length form) were lifted using non-enzymatic solution (versene, to avoid receptor proteolysis) and blocked for 30 min using PBS+0.5% BSA (w/v).
Cells were washed 3 times using cold PBS before to be analysed by flow cytometry in parallel to unstained cells (incubated in blocking buffer in absence of antibody).

B1: human/mouse chimeric 10D7 antibody: 10D7 VH and VL cloned into human constant region heavy and light chains; SEQ ID NO:12 and 13 (antibody)
heavy: EVQLQQFGAELVKPGASVKISCKASGYSFSDFNIEWLKQSHGKSLEWIGDINPNYDSTNYNQKFKGRATLTVDKSSSTAYMEVRSLTSEDTAVYYCARLGYGYAMDYWGQGTSVTVSS[human IgG1 constant region not spelt out]
light: IVMTQSPQSMSMSVGERVTLSCKASENVGAYVSWFQQKPDQSPKLLILAASNRYTGVPARFIGSGSATDFTLTISSVQAEDLADYHCGQSYTYPYTFGGGTKLEIKRADAAPTVSIFPPSDEQLKSGTASVVCLLNNFYPREAKVQWKVDNALQSGNSQESVTEQDSKDSTYSLSSTLTLSKADYEKHKVYACEVTHQGLSSPVTKSFNRGEC
modifications: heavy chain of chimeric 10D7 antibody; light chain of chimeric 10D7 antibody
- accumulation in the tumour compared with parent mouse 10D7 antibody [1]: significantly greater degree
- detection of CDCP1 expressing tumours in vivo ([1]; 3-5 MBq intravenously): able to detect CDCP1 expressing tumours in vivo
- internalisation and degradation of CDCP1 [2]: internalised and induce the degradation of CDCP1
- internalisation [3]: internalised specifically via CDCP1
- binding to CDCP1 expressing pancreatic cancer cells [4]: bound
- binding to CDCP1 expressing cells [5]: bind
